The results in this text go back to the supplement of paper PMC8728848.

The list shows a part of the results.

Common to all, as to experiment: glycan array binding signal (z-score within array); higher = stronger binding
Common to all, as to conditions: glycan notation: IUPAC condensed, linker removed

In assay [1] the target is Fuc(a1-2)Gal(b1-4)GlcNAc(b1-3)Gal(b1-4)GlcNAc(b1-3)Gal(b1-4)GlcNAc. Put shortly: (§1)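 The binding signal is a Z-score computed within each array and averaged over linkers. Arrays of the same protein sequence at different concentrations or buffers were also averaged together. Data originate from 3228 arrays in the Consortium for Functional Glycomics database, kept only where the protein sequence was available.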

In assay [2] the target is Fuc(a1-2)Gal(b1-4)GlcNAc(b1-3)GalNAc. In short, it runs like this: as §1
The target in assay [3] is Fuc(a1-2)Gal(b1-4)GlcNAc(b1-3)[Fuc(a1-2)Gal(b1-4)GlcNAc(b1-6)]GalNAc. Put shortly: as §1
Assay [4] concerns the target Fuc(a1-2)Gal(b1-4)GlcNAc(b1-3)[Fuc(a1-3)[Gal(b1-4)]GlcNAc(b1-6)]Gal(b1-4)Glc. In short, it runs like this: as §1
Assay [5] deals with Fuc(a1-2)Gal(b1-4)GlcNAc(b1-6)GalNAc. In short, it runs like this:
as §1

Assay [6] deals with Fuc(a1-2)Gal(b1-4)GlcNAc6S. Put shortly:
as §1

For assay [7], the target named is Fuc(a1-2)Gal(b1-4)[Fuc(a1-3)]GlcNAc. In short, it runs like this:
as §1

Assay [8] deals with Fuc(a1-2)Gal(b1-4)[Fuc(a1-3)]GlcNAc(b1-2)Man(a1-3)[Fuc(a1-2)Gal(b1-4)[Fuc(a1-3)]GlcNAc(b1-2)Man(a1-6)]Man(b1-4)GlcNAc(b1-4)[Fuc(a1-6)]GlcNAc. In short, it runs like this:
as §1

Assay [9] concerns the target Fuc(a1-2)Gal(b1-4)[Fuc(a1-3)]GlcNAc(b1-2)[Fuc(a1-2)Gal(b1-4)[Fuc(a1-3)]GlcNAc(b1-4)]Man(a1-3)[Fuc(a1-2)Gal(b1-4)[Fuc(a1-3)]GlcNAc(b1-2)Man(a1-6)]Man(b1-4)GlcNAc(b1-4)GlcNAc. In short, it runs like this:
as §1

The target in assay [10] is Fuc(a1-2)Gal(b1-4)[Fuc(a1-3)]GlcNAc(b1-3)Gal(b1-4)[Fuc(a1-3)]GlcNAc. In short, it runs like this:
as §1

Assay [11] addresses Fuc(a1-2)Gal(b1-4)[Fuc(a1-3)]GlcNAc(b1-3)Gal(b1-4)[Fuc(a1-3)]GlcNAc(b1-3)Gal(b1-4)[Fuc(a1-3)]GlcNAc. In short, it runs like this: as §1
Assay [12] concerns the target Fuc(a1-2)Gal(b1-4)[Fuc(a1-3)]GlcNAc(b1-3)GalNAc. Put shortly:
as §1

For assay [13], the target named is Fuc(a1-2)Gal(b1-4)[Fuc(a1-3)]GlcNAc(b1-3)[Neu5Ac(a2-6)Gal(b1-4)GlcNAc(b1-6)]Gal(b1-4)Glc. Put shortly:
as §1

For assay [14], the target named is Fuc(a1-2)Gal3S(b1-4)GlcNAc. In short, it runs like this:
as §1

In assay [15] the target is Fuc(a1-2)Gal6S(b1-3)GlcNAc. In short, it runs like this:
as §1

Assay [16] has as its target Fuc(a1-2)Gal6S(b1-3)GlcNAc6S. In short, it runs like this:
as §1

The target of assay [17] is Fuc(a1-2)Gal6S(b1-4)Glc. Put shortly: as §1
The target in assay [18] is Fuc(a1-2)Gal6S(b1-4)Glc6S. Put shortly:
as §1

The target of assay [19] is Fuc(a1-2)[Gal(a1-3)]Gal. In short, it runs like this: as §1
The target of assay [20] is Fuc(a1-2)[Gal(a1-3)]Gal(b1-3)GalNAc. Put shortly:
as §1

The target in assay [21] is Fuc(a1-2)[Gal(a1-3)]Gal(b1-3)GalNAc(b1-3)Gal(a1-4)Gal(b1-4)Glc. Put shortly: as §1
In assay [22] the target is Fuc(a1-2)[Gal(a1-3)]Gal(b1-3)GlcNAc. In short, it runs like this: as §1

B1: RBMC1 (Vibrio cholerae) (protein)
chain: QQSQRVVTADNLMYLRSGFAIDAIGTTVNNLVGGPVQGTNGGVLRAPIALDQLQSVEVTSGLYNWGGYHIVAIKFTMKDGSSVLLGSTHYASNKKVETYTVPQGKRIKQINVWTGGWLVEGFQFVY
Regarding B1, the “glycan array binding signal (z-score)” value in [1] was -0.261; in assay [2], -0.391; in assay [3] it was -0.353; in assay [4] it was -0.425; in assay [5], -0.105; in assay [6], -0.261. Besides, the “glycan array binding signal (z-score)” value was -0.347 in assay [7]; 0.113 in [8]; -0.111 in assay [9]; -0.321 in assay [10]; -0.201 in assay [11]; -0.306 in assay [12]. Moreover, the “glycan array binding signal (z-score)” value in assay [13] is -0.396; in assay [14], -0.111; in assay [15] it was -0.281; in assay [16], 0.041; in assay [17], -0.306; in [18] it was -0.303. Further, the “glycan array binding signal (z-score)” value in [19] is -0.15; in [20] it was -0.252; in assay [21], -0.195; in assay [22] it was -0.249.
